Source: the supplement of paper PMC12230231

Tested on: SIVsab (simian immunodeficiency virus of sabaeus monkeys), single-cycle GFP reporter, in CRFK cells
Test: enrichment among uninfected cells over input (fold); higher = stronger restriction
Details: library: human / rhesus combinations
Protocol: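 Pools of CRFK cells expressing variants of the TRIM5α v1 loop were challenged with the single-cycle reporter, sorted by GFP and sequenced; mean of two replicates.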

Row | Sequence | enrichment
1 | MASGILVNVKEEVTCPICLELLTQPLSLDCGHSFCQACLTANHKKSMLDKGESSCPVCRISYQPENIRPNRHVANIVEKLREVKLSPEGQKVDHCARHGEKLLLFCQEDGKVICWLCERSQEHRGHHTFLTEEVAREYQVKLQAALEMLRQKQQEAEELEADIREEKASWKTQIQYDKTNVLADFEQLRDILDWEESNELQNLEKEEEDILKSLTNSETEMVQQTQSLRELISDLEHRLQGSVMELLQGVDGVIKRTENVTLKKPETFPKNQRRVFRAPDLKGMLEVFRELTDVRRYWVDVTVAPNNISCAVISEDKRQVSSPKPQIIYGARGTRFTFPSFTNFNYCTGILGSQSITSGKHYWEVDVSKKTAWILGVCAGFQPDAMCNIEKNENYQPKYGYWVIGLEEGVKCSAFQDSSFHTPSVPFIVPLSVIICPDRVGVFLDYEACTVSFFNITNHGFLIYKFSHCSFSQPVFPYLNPRKCGVPMTLCSPSS [human TRIM5α, 330-340 = GARGTRFTFPSFT] | 0.227 ± 0.013
2 | MASGILVNVKEEVTCPICLELLTQPLSLDCGHSFCQACLTANHKKSMLDKGESSCPVCRISYQPENIRPNRHVANIVEKLREVKLSPEGQKVDHCARHGEKLLLFCQEDGKVICWLCERSQEHRGHHTFLTEEVAREYQVKLQAALEMLRQKQQEAEELEADIREEKASWKTQIQYDKTNVLADFEQLRDILDWEESNELQNLEKEEEDILKSLTNSETEMVQQTQSLRELISDLEHRLQGSVMELLQGVDGVIKRTENVTLKKPETFPKNQRRVFRAPDLKGMLEVFRELTDVRRYWVDVTVAPNNISCAVISEDKRQVSSPKPQIIYQARGTLYTFQTLTNFNYCTGILGSQSITSGKHYWEVDVSKKTAWILGVCAGFQPDAMCNIEKNENYQPKYGYWVIGLEEGVKCSAFQDSSFHTPSVPFIVPLSVIICPDRVGVFLDYEACTVSFFNITNHGFLIYKFSHCSFSQPVFPYLNPRKCGVPMTLCSPSS [human TRIM5α, 330-340 = QARGTLYTFQTLT] | 0.113 ± 0.11
3 | MASGILVNVKEEVTCPICLELLTQPLSLDCGHSFCQACLTANHKKSMLDKGESSCPVCRISYQPENIRPNRHVANIVEKLREVKLSPEGQKVDHCARHGEKLLLFCQEDGKVICWLCERSQEHRGHHTFLTEEVAREYQVKLQAALEMLRQKQQEAEELEADIREEKASWKTQIQYDKTNVLADFEQLRDILDWEESNELQNLEKEEEDILKSLTNSETEMVQQTQSLRELISDLEHRLQGSVMELLQGVDGVIKRTENVTLKKPETFPKNQRRVFRAPDLKGMLEVFRELTDVRRYWVDVTVAPNNISCAVISEDKRQVSSPKPQIIYQARGTLFQTLVNFNYCTGILGSQSITSGKHYWEVDVSKKTAWILGVCAGFQPDAMCNIEKNENYQPKYGYWVIGLEEGVKCSAFQDSSFHTPSVPFIVPLSVIICPDRVGVFLDYEACTVSFFNITNHGFLIYKFSHCSFSQPVFPYLNPRKCGVPMTLCSPSS [human TRIM5α, 330-340 = QARGTLFQTLV] | 0.00534 ± 0.0031
4 | MASGILVNVKEEVTCPICLELLTQPLSLDCGHSFCQACLTANHKKSMLDKGESSCPVCRISYQPENIRPNRHVANIVEKLREVKLSPEGQKVDHCARHGEKLLLFCQEDGKVICWLCERSQEHRGHHTFLTEEVAREYQVKLQAALEMLRQKQQEAEELEADIREEKASWKTQIQYDKTNVLADFEQLRDILDWEESNELQNLEKEEEDILKSLTNSETEMVQQTQSLRELISDLEHRLQGSVMELLQGVDGVIKRTENVTLKKPETFPKNQRRVFRAPDLKGMLEVFRELTDVRRYWVDVTVAPNNISCAVISEDKRQVSSPKPQIIYQAPGTRFTFPTFVNFNYCTGILGSQSITSGKHYWEVDVSKKTAWILGVCAGFQPDAMCNIEKNENYQPKYGYWVIGLEEGVKCSAFQDSSFHTPSVPFIVPLSVIICPDRVGVFLDYEACTVSFFNITNHGFLIYKFSHCSFSQPVFPYLNPRKCGVPMTLCSPSS [human TRIM5α, 330-340 = QAPGTRFTFPTFV] | 0.186 ± 0.21
5 | MASGILVNVKEEVTCPICLELLTQPLSLDCGHSFCQACLTANHKKSMLDKGESSCPVCRISYQPENIRPNRHVANIVEKLREVKLSPEGQKVDHCARHGEKLLLFCQEDGKVICWLCERSQEHRGHHTFLTEEVAREYQVKLQAALEMLRQKQQEAEELEADIREEKASWKTQIQYDKTNVLADFEQLRDILDWEESNELQNLEKEEEDILKSLTNSETEMVQQTQSLRELISDLEHRLQGSVMELLQGVDGVIKRTENVTLKKPETFPKNQRRVFRAPDLKGMLEVFRELTDVRRYWVDVTVAPNNISCAVISEDKRQVSSPKPQIIYGAPGTRFTFPSFTNFNYCTGILGSQSITSGKHYWEVDVSKKTAWILGVCAGFQPDAMCNIEKNENYQPKYGYWVIGLEEGVKCSAFQDSSFHTPSVPFIVPLSVIICPDRVGVFLDYEACTVSFFNITNHGFLIYKFSHCSFSQPVFPYLNPRKCGVPMTLCSPSS [human TRIM5α, 330-340 = GAPGTRFTFPSFT] | 0.185 ± 0.022

Same assay, conditions: library: insertions and deletions

Row | Sequence | enrichment
6 | MASGILVNVKEEVTCPICLELLTQPLSLDCGHSFCQACLTANHKKSMLDKGESSCPVCRISYQPENIRPNRHVANIVEKLREVKLSPEGQKVDHCARHGEKLLLFCQEDGKVICWLCERSQEHRGHHTFLTEEVAREYQVKLQAALEMLRQKQQEAEELEADIREEKASWKTQIQYDKTNVLADFEQLRDILDWEESNELQNLEKEEEDILKSLTNSETEMVQQTQSLRELISDLEHRLQGSVMELLQGVDGVIKRTENVTLKKPETFPKNQRRVFRAPDLKGMLEVFRELTDVRRYWVDVTVAPNNISCAVISEDKRQVSSPKPQIIYGARGTRYQTFVNFNYCTGIFNYCTGILGSQSITSGKHYWEVDVSKKTAWILGVCAGFQPDAMCNIEKNENYQPKYGYWVIGLEEGVKCSAFQDSSFHTPSVPFIVPLSVIICPDRVGVFLDYEACTVSFFNITNHGFLIYKFSHCSFSQPVFPYLNPRKCGVPMTLCSPSS [human TRIM5α, 7-codon duplication at 342] | 0.377 ± 0.33
7 | MASGILVNVKEEVTCPICLELLTQPLSLDCGHSFCQACLTANHKKSMLDKGESSCPVCRISYQPENIRPNRHVANIVEKLREVKLSPEGQKVDHCARHGEKLLLFCQEDGKVICWLCERSQEHRGHHTFLTEEVAREYQVKLQAALEMLRQKQQEAEELEADIREEKASWKTQIQYDKTNVLADFEQLRDILDWEESNELQNLEKEEEDILKSLTNSETEMVQQTQSLRELISDLEHRLQGSVMELLQGVDGVIKRTENVTLKKPETFPKNQRRVFRAPDLKGMLEVFRELTDVRRYWVDVTVAPNNISCAVISEDKRQVSSPKPQIIYGARGTRYQTFFNYCTGILGSQSITSGKHYWEVDVSKKTAWILGVCAGFQPDAMCNIEKNENYQPKYGYWVIGLEEGVKCSAFQDSSFHTPSVPFIVPLSVIICPDRVGVFLDYEACTVSFFNITNHGFLIYKFSHCSFSQPVFPYLNPRKCGVPMTLCSPSS [human TRIM5α, 2-codon deletion at 340] | 1 ± 1.4
8 | MASGILVNVKEEVTCPICLELLTQPLSLDCGHSFCQACLTANHKKSMLDKGESSCPVCRISYQPENIRPNRHVANIVEKLREVKLSPEGQKVDHCARHGEKLLLFCQEDGKVICWLCERSQEHRGHHTFLTEEVAREYQVKLQAALEMLRQKQQEAEELEADIREEKASWKTQIQYDKTNVLADFEQLRDILDWEESNELQNLEKEEEDILKSLTNSETEMVQQTQSLRELISDLEHRLQGSVMELLQGVDGVIKRTENVTLKKPETFPKNQRRVFRAPDLKGMLEVFRELTDVRRYWVDVTVAPNNISCAVISEDKRQVSSPKPQIIYGARPQIIYGARGTRYQTFVNFNYCTGILGSQSITSGKHYWEVDVSKKTAWILGVCAGFQPDAMCNIEKNENYQPKYGYWVIGLEEGVKCSAFQDSSFHTPSVPFIVPLSVIICPDRVGVFLDYEACTVSFFNITNHGFLIYKFSHCSFSQPVFPYLNPRKCGVPMTLCSPSS [human TRIM5α, 8-codon duplication at 325] | 0.386 ± 0.06
9 | MASGILVNVKEEVTCPICLELLTQPLSLDCGHSFCQACLTANHKKSMLDKGESSCPVCRISYQPENIRPNRHVANIVEKLREVKLSPEGQKVDHCARHGEKLLLFCQEDGKVICWLCERSQEHRGHHTFLTEEVAREYQVKLQAALEMLRQKQQEAEELEADIREEKASWKTQIQYDKTNVLADFEQLRDILDWEESNELQNLEKEEEDILKSLTNSETEMVQQTQSLRELISDLEHRLQGSVMELLQGVDGVIKRTENVTLKKPETFPKNQRRVFRAPDLKGMLEVFRELTDVRRYWVDVTVAPNNISCAVISEDKRQVSSPKPQIIYGARGTRYQTFVNFNYCNFNYCTGILGSQSITSGKHYWEVDVSKKTAWILGVCAGFQPDAMCNIEKNENYQPKYGYWVIGLEEGVKCSAFQDSSFHTPSVPFIVPLSVIICPDRVGVFLDYEACTVSFFNITNHGFLIYKFSHCSFSQPVFPYLNPRKCGVPMTLCSPSS [human TRIM5α, 5-codon duplication at 341] | 2.13 ± 2.4
10 | MASGILVNVKEEVTCPICLELLTQPLSLDCGHSFCQACLTANHKKSMLDKGESSCPVCRISYQPENIRPNRHVANIVEKLREVKLSPEGQKVDHCARHGEKLLLFCQEDGKVICWLCERSQEHRGHHTFLTEEVAREYQVKLQAALEMLRQKQQEAEELEADIREEKASWKTQIQYDKTNVLADFEQLRDILDWEESNELQNLEKEEEDILKSLTNSETEMVQQTQSLRELISDLEHRLQGSVMELLQGVDGVIKRTENVTLKKPETFPKNQRRVFRAPDLKGMLEVFRELTDVRRYWVDVTVAPNNISCAVISEDKRQVSSPKPQIIYGATRYQTFVNFNYCTGILGSQSITSGKHYWEVDVSKKTAWILGVCAGFQPDAMCNIEKNENYQPKYGYWVIGLEEGVKCSAFQDSSFHTPSVPFIVPLSVIICPDRVGVFLDYEACTVSFFNITNHGFLIYKFSHCSFSQPVFPYLNPRKCGVPMTLCSPSS [human TRIM5α, 2-codon deletion at 332] | 0.856 ± 0.091
11 | MASGILVNVKEEVTCPICLELLTQPLSLDCGHSFCQACLTANHKKSMLDKGESSCPVCRISYQPENIRPNRHVANIVEKLREVKLSPEGQKVDHCARHGEKLLLFCQEDGKVICWLCERSQEHRGHHTFLTEEVAREYQVKLQAALEMLRQKQQEAEELEADIREEKASWKTQIQYDKTNVLADFEQLRDILDWEESNELQNLEKEEEDILKSLTNSETEMVQQTQSLRELISDLEHRLQGSVMELLQGVDGVIKRTENVTLKKPETFPKNQRRVFRAPDLKGMLEVFRELTDVRRYWVDVTVAPNNISCAVISEDKRQVSSPKPQIIYGARGTRYQTFVNFNYCTGILGFNYCTGILGSQSITSGKHYWEVDVSKKTAWILGVCAGFQPDAMCNIEKNENYQPKYGYWVIGLEEGVKCSAFQDSSFHTPSVPFIVPLSVIICPDRVGVFLDYEACTVSFFNITNHGFLIYKFSHCSFSQPVFPYLNPRKCGVPMTLCSPSS [human TRIM5α, 9-codon duplication at 342] | 0.579 ± 0.82
12 | MASGILVNVKEEVTCPICLELLTQPLSLDCGHSFCQACLTANHKKSMLDKGESSCPVCRISYQPENIRPNRHVANIVEKLREVKLSPEGQKVDHCARHGEKLLLFCQEDGKVICWLCERSQEHRGHHTFLTEEVAREYQVKLQAALEMLRQKQQEAEELEADIREEKASWKTQIQYDKTNVLADFEQLRDILDWEESNELQNLEKEEEDILKSLTNSETEMVQQTQSLRELISDLEHRLQGSVMELLQGVDGVIKRTENVTLKKPETFPKNQRRVFRAPDLKGMLEVFRELTDVRRYWVDVTVAPNNISCAVISEDKRQVSSPKPQIIYPQIIYGARGTRYQTFVNFNYCTGILGSQSITSGKHYWEVDVSKKTAWILGVCAGFQPDAMCNIEKNENYQPKYGYWVIGLEEGVKCSAFQDSSFHTPSVPFIVPLSVIICPDRVGVFLDYEACTVSFFNITNHGFLIYKFSHCSFSQPVFPYLNPRKCGVPMTLCSPSS [human TRIM5α, 5-codon duplication at 325] | 0.829 ± 0.44

± gives the standard deviation of the averaged measurements. Restriction of a single-cycle SIVsab GFP reporter by TRIM5α v1-loop variants in CRFK cells. Human variants: read share among cells still uninfected after two challenges over input, higher = gained restriction. Rhesus variants: share among infected cells over input, higher = lost restriction. Reporter dose not given per row. No active / inactive call per row; the paper calls a change when both replicates lie above its controls (mean + 2 SD of stop or wild-type variants, or the top frameshift score). Residues outside the varied loop are taken from Swiss-Prot. The paper reads the human single-substitution scores as noise; they and the rhesus combinations repeat poorly (rank correlation 0.3 to 0.4), indel scores repeat only for the top variants, rhesus substitutions well (0.9).
